Laboratory results published in PMC10726135.
The list shows a part of the results. At the low end of the ranking the order means little. The protein was read in a cell extract, so binding may be indirect.

target: T1, HNF4alpha8 (COS-7 nuclear extract) (UniProt P41235-5); experiment: protein-binding microarray; conditions: COS-7 nuclear extract on double-stranded Agilent 4x180k PBM; binding buffer, salt, pH and temperature not given; high values mean tight binding; double strand, one strand shown; sequences stand for … in …GCCTAGGGAGATTAGAGTATCGGTCGA
T1 sequence: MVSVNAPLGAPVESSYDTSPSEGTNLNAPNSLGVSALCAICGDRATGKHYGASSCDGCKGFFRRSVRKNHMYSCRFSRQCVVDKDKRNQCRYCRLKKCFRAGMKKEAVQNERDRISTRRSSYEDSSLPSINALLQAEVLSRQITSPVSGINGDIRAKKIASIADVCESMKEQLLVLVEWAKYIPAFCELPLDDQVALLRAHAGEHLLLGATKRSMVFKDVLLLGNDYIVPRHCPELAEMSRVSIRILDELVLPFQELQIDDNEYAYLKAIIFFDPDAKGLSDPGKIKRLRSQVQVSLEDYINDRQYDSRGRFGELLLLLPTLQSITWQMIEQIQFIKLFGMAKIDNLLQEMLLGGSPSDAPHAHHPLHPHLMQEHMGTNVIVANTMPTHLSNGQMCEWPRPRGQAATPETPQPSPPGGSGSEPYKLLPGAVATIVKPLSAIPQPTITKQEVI

| Sequence | binding signal (log2 normalized intensity) |
| --- | --- |
| ACACAGACAAAGACAGAGAGGCTTCCCTTT | -1.35 |
| TGAAGGAACAGGTTCAGATAAGACAAGCTC | -1.22 |
| GGAAAGCTGAGGCCCAGGAAGCTCCAGCGG | -1.14 |
| AGAATGTGGTTCTTTTCATTAAATATTTAA | 0.534 |
| CCTGGATCTTCCAGGCCTCCAGCTCTTTTG | -1.22 |
| CTCAGAGGACCTGACATTCTCCACTTGGTG | -1.34 |
| GCCTGGACAGATAAGAAGGGGTCAGACCAG | 2.9 |
| GGCTCCTATTTCTGGCCCTGCAATTTGATT | -0.0711 |
| CATCGCAGAAAGCTCTTTGCACAGTACTGA | -0.957 |
| GGGTTCAAGCTTGATCCAGGATCCTTCTTG | -0.0828 |
| GACCTTTGTTTTATTGTCATGCTGATATTC | 3.11 |
| GCAGGCTCAGAACTACCAATGTTTACCAGC | -1.29 |
| TGACAAACATGTATCAGTGATAGACTAACT | -1.34 |
| AACCTTTGCCCCAGCTGTCACCCAGCCAGA | 4.16 |
| AAAAGATAAGGACACAAGTGTCAGAGCAGG | -1.29 |
| TGAGTCCCCCGGCTCTACGCAAGTGGTACC | 3.08 |
| CGCGTCCTCGGCTCTGCGCAGGCGCAGTCC | -1.26 |
| TAGAGCTGCTTACATTTTGCTCTGTTGTGT | 1.58 |
| TACTTATGTCTCCAGAAACCAACCTTTGAT | 4 |
| CTAAGATTTATAAAGGGCAGCAAGTATTCA | 0.121 |
| CTTTGAGCCAGAATCTGTCAGCTGCCTTTC | -1.27 |
| GTGTTGAGAATCCCTCCCCTGTGCAAACTT | 3.14 |
| TTAAGTCAAAATATAAGGTCCAACTGACAT | 1.7 |
| CTTCTTTGAAAGTTTGGTGGACTTTGGCCG | 10.1 |

| Sequence | binding signal (log2 normalized intensity) |
| --- | --- |
| TAAACCTGTTTGGTATCTACTCGGCAAAAC | 1.28 |
| TTGTGAGTCCAAAGGTCAGCCGGGGAAGGT | 7.55 |
| CCTTGGATCTCCTGCACCTGAACTTTGCTC | 6.94 |
| CCTTGAGTTTGAACTTTGACTTATTTAGTA | 5.97 |
| AAGTGGAATGCGCTTTCATGAGATGAAAGC | -1.46 |
| CAGCAGGGCACCGCCTCCACACCCCAGCCT | 2.55 |
| CAAACTGCTGAAGATAAGACTTCCTCAGAT | -1.29 |
| AGTCCAGAGTCTGACAGAACTAAGCTGTTG | -1.34 |
| GTTTGCTTTTCCTTATCATCACATGTGCAA | 1.01 |
| GGTAATCACCCTCTCCACCCCCATGCAAGT | 5.33 |
| CGGACCAGAGCCTGCCCCCGGGGCCGCCTT | 0.167 |
| GCCTCCTGCCCCAGGAGCAGGATAGAAGGA | -0.726 |
| TTCAGATATTCCTGGAATGACAAGAATTGG | 0.17 |
| AAAGGTGAGAGAGCATCCAGATAAAGCTGA | -1.37 |
| AAATCAACAAATAAATAAGAAGCCTTATCA | -1.32 |
| TGGCCAAAGTTCAGTAAATCTTAGAGAACA | 2.27 |
| GGCACACACGCATGGCCGGCAGCAGCCTTG | -1.37 |
| GACCTTTCACCCGCGCCCAGCGGTTCCGGG | 3.84 |
| AGAAAGTGGCCGGACAGGTTGGGTCTGAAG | 0.856 |
| GGCCTATAATTAGGTCTTTTGGTGAGTCTT | 0.842 |
| TAGATGTCCCAGTAGATAACTTCAAGGAGC | -1.28 |
| TTTGGGCTCATCCATTTTCCTCTGAAAATC | -0.92 |
| CACATACAGAATCCTTTACCTCCACCTCCA | 0.113 |
| TACCCAAGCCCCAAATCTAGCATCAGTGAG | 0.747 |

| Sequence | binding signal (log2 normalized intensity) |
| --- | --- |
| AGTATTTATTGAGCACTTTTGGTATGCAAG | 1.06 |
| AAGCAGAGGTGACCCTTGCACTCATACTTG | 5.55 |
| TTGCCCCCGGGCACAGGGTTGAGTGGTGAC | 2.86 |
| TATGCCTCTGTGACCTATAATCAGATGTAC | 2.33 |
| CAAGCTGGCTGGCTTTAGAGTTGTAGCTCT | -1.27 |
| GAGGAAGACATCATATTTGTTATATTTGTT | 0.811 |
| TCTGTAGTTTTCGTTGTCTAATCCTTCAAA | 1.64 |
| GTGCATGGAGTGCACTGTGATCTTTAGAAA | 2.3 |
| GGGGCCAGTGTCATTTACAGAATTTCTCAG | -1.38 |
| CAGCAAGGCCCAGGGCAAGGACTCTAAAGG | -0.908 |
| CGCTAGAGCAAATACAGCACTCAAATGATC | -0.431 |
| GAGCAAACACCAAGGGCAGAGTCCTGGGGA | -0.852 |
| CTCAACAAATATTAGCTGTTGGCTCCAGAG | -1.26 |
| CAGATCCCTCTGGTGCTGATGTGTTCGCCC | 1.79 |
| AGGGGAGATAATGCCAGAAAGGTCTAAAAG | -0.995 |
| CTGCATTCCTCAACTCTAGGAGCATGTCAA | -0.663 |
| GAGGGAGAGTGGCCTTTGGAATCAAACAGA | 2.93 |
| TTCATTTAGACATGTTTACTTTTGCAAGGT | 1.51 |
| GTGAGGCCAAAAGGTGCTACCACGAGAGTA | -1.11 |
| CATGCCACACATTGCTGCCATAACTCAAAA | -1.23 |
| CTCCGGCCGGGAAGATGCCAGCCCCGAGAT | 3.91 |
| ATGCACGGAAGCCTTCCCCGCCCGCAGCCC | 4.31 |
| AGGATCAAGGGTGGATATTGGGAGGCCCAT | -1.12 |
| ATTCATTCCCTAAGATTCTGGTCAAAGGTC | 7.83 |

| Sequence | binding signal (log2 normalized intensity) |
| --- | --- |
| GCCAGCTGGCCTCCTGCGGTCCGGACTCTG | 2.43 |
| AGCTGGAATGAAACGGATGCAAAGGCTGAG | -1.16 |
| CCCAGCCTATTAACCCCAAATTCCTCATGC | 1.31 |
| CCTTCAACTGATTAGATAAGGTTCACCCAC | 1.88 |
| GGGCCAAAAGCAGCCATTAAGAAGCAAGTG | -1.11 |
| TGAGAGAGCTGCATTGCTTCTGAAGGCTTA | -1.37 |
| TCTTCTCAGTGTTTTGGGTCCTACAGAACC | 0.643 |
| CCAGATGAGAGCAGAGGCTGGGGCCCTCTT | -1.28 |
| GGACTTTGGTCTCATGGGCCTAAACATTCC | 5.24 |
| ACGGGGGCCGCTCTCCCTCCAGGCCCCAGC | -1.29 |
| ACTGTCATGGATGACCTCTTTTAGTAACTG | 2.02 |
| TGAAGAGGCCAGGGGCACTCTCTGTTATCA | -0.997 |
| TTAGGATGACCTTTAGATTCTTACAGGCAA | 4.57 |
| TTTCATTCCACTGACTTGCAACCTTTGCCC | 7.51 |
| AATTTCAGAGGGAAGAGGAAGCATCCTATA | -1.31 |
| CAAAGGTCATAATTTGATCCAGTGTGCAAA | 4.08 |
| TGGTGTTGAAGCTCTGGTTCAAACAAGGCC | -0.24 |
| ATATCTGCCTCAGTAGTAGTGAAAAATGAA | 0.637 |
| TAGGCTTGGAGCCTTGTAAAATGTACATGG | 1.09 |
| TCCCTGCCCACATCCATTTTCTATCCTACT | -0.948 |
| CTAGAACAGCTCCTTTGAAGCTTCGAGCCT | -1.4 |
